According to patent publication US20110301335A1:

What was measured:
[1] = target: human TNFR1 on MRC-5 cells (human) (UniProt P19438); assay: cell-based or functional assay
[2] = target: mouse TNFR1 on L929 cells (mouse) (UniProt P25118); assay: cell-based or functional assay
Chain of UniProt P25118 (P25118 30-454): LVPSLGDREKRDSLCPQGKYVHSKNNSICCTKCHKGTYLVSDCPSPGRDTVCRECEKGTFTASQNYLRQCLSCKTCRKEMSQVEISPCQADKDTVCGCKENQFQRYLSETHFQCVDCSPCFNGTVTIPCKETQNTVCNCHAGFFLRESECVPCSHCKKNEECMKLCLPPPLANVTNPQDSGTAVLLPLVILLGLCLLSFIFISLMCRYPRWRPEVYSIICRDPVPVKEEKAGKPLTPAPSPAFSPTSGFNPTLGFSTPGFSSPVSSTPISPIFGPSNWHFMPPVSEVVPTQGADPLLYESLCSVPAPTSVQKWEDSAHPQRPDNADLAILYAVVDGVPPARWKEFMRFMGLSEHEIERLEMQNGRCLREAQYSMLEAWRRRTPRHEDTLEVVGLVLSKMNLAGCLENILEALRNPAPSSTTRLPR

Chain of UniProt P19438 (P19438 30-455): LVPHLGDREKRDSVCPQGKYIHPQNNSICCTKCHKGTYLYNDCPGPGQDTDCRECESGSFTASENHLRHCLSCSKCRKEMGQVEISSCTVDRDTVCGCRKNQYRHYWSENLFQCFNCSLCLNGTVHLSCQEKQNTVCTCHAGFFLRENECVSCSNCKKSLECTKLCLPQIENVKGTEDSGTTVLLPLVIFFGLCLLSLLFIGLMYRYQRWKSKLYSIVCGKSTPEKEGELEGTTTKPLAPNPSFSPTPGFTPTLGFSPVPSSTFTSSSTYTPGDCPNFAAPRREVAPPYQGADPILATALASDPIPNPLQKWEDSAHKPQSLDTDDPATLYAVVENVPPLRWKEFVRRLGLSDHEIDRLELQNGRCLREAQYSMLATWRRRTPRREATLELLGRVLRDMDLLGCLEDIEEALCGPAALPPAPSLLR

B1: DMS0136 (bispecific antibody)
chain: EVQLLESGGGLVQPGGSLRLSCAASGFTFVKYSMGWVRQAPGKGLEWVSQISDTADRTYYAH[about 20 residues omitted]MNSLRAEDTAVYYCAIYTGRWVPFEYWGQGTLVTVSSASTDIQMTQSPSSLSASVGDRVTITCRASRPIGTTLSWYQQKPGKAPKLLILWNSRLQSGVPSRFSGSGSGTDFTLTISSLQPEDFATYYCAQAGTHPTTFGQGTKVEIKR
An MRC5 ND50 [1] of 1.97 nM and an L929 ND50 [2] of 5.4 nM were found for B1 in this work.
